The source gives no read counts; variants with many changes may rest on few reads.
B1: LINE1-mini (parent)
chain: GGCAGAGCUCAACACAGCGUGGCAAAGUGGCUGUGGCUAGACUGCC

Variants of: B1
Experiment: self-cleavage, relative activity (ratio to wild type); higher = more cleavage; in vitro, sequencing; the parent is a self-cleaving ribozyme
GUCAGAGCUCAACACAGCGUGGCCAAGUGGCUGUGGCUAGACUUCC [G2U A24C G44U] showed a self-cleavage of 0.03. Variant GUCAGAGCUCAACCCAGCGUGGCAAAGUGCCUGUGUCUAGACUGCC [G2U A14C G30C G36U] has a self-cleavage of 0.01. In the case of GUAAGAGCUCCACACAGCGAGGCAAAGUGGCUGUGGCUAAACUGCC [G2U C3A A11C U20A G40A], the self-cleavage is reported as 0.07. GUCAGAGCUCAACCUAGCGUGGCAAAGUGGCUGUGGCUAGACUGCC [G2U A14C C15U] gave a self-cleavage of 0. GUCAGAGCUCAACACAGCGUGGCAAGUUGGCUGUGGCUAGACUGCC [G2U A26G G27U] showed a self-cleavage of 0.02. In the case of GUCAGAGCUCAACACAGCGUGGCAUAGUGGUUGUGGCUGGACUGCC [G2U A25U C31U A39G], the self-cleavage is reported as 0.01. GUCAGAGCUCAGCACAGCGUGGCAAAGUGGCUGUGGCUAAACUGCC [G2U A12G G40A] showed a self-cleavage of 0.02. In the case of GUCAGAGCUCAACUCAGCGUGGCAAAGUGGCUGUGGCGAGAAAGCC [G2U A14U U38G C42A U43A], the self-cleavage is reported as 0.02. With GUCAGAGCUCAACGCAGAGUGUCAAAGUGGCUGUGGCUAGACUGCC [G2U A14G C18A G22U] the self-cleavage was 0.01. Variant GUAAGAGCUCAACUCAGCGUGGCAAAGUGGCUGUGGCUAGACUGCC [G2U C3A A14U] has a self-cleavage of 0.16. For GUCAGAGCUCACCUCGGCGUGGCAAAGUGGCUGUGGCUGGACUGAC [G2U A12C A14U A16G A39G C45A], the self-cleavage was 0.01. Work on GUCAGAGCUCACCACAGCGUGGCAAAGUGUCUGCGGCUAGACUGCC [G2U A12C G30U U34C] yielded a self-cleavage of 0.03. GUAAGAGCUCAACACAGCGUGGCAUAGUGGCUGUGGCUAGACUGCC [G2U C3A A25U] gave a self-cleavage of 0.08. Work on GUCAGAGCUCAACCCAGCGUGGCGAAGUGGCAGUGGCCAGACUGCU [G2U A14C A24G U32A U38C C46U] yielded a self-cleavage of 0.01. GUCAGAGCUCAACUUAGCGUGGCAAAGUGGCAGUGGCUAGACUGCC [G2U A14U C15U U32A] gave a self-cleavage of 0.02. With GUCAGAGCUCAACACAGCGUGGCAUAUUGGCUUUGGCUGGACUGCA [G2U A25U G27U G33U A39G C46A] the self-cleavage was 0.01. In the case of GUCAGAGCUCAACACAGCGUGGCCAAGUGGCUGUGGCUAGGCUGCC [G2U A24C A41G], the self-cleavage is reported as 0.01. GUCAGAGCUCUACACAGCGUGGCAAAGUGGCUGUGGCCAGACUGCC [G2U A11U U38C] showed a self-cleavage of 0. For GUCAGAGCUCUACACAGCGUGGCAAAGUGGCUGUGGCAAGACUGCC [G2U A11U U38A], the self-cleavage was 0.01. GUCAGAGCUCAACACAGCGUGGCGAAGUGGCUGUGGCUUGACUGCC [G2U A24G A39U] gave a self-cleavage of 0. In the case of GUCAGAGCUCAACACCGAGUGGCAAAGUGGCUGUGGCUAGACUGCU [G2U A16C C18A C46U], the self-cleavage is reported as 0.01. With GUCAGAGCUCUACACAGCGUGGCUGAGUGGCUGUGUCGAGAAUGCC [G2U A11U A24U A25G G36U U38G C42A] the self-cleavage was 0. For GUCAGAGCUCUACACAGCGUGGCAAAGUGGAUGUGGCUAGACUUCC [G2U A11U C31A G44U], the self-cleavage was 0.01. With GUCAGAGCUCAACACAGCGUGGCUAAGUGGCUGUCGCUAGACUGCC [G2U A24U G35C] the self-cleavage was 0.06. Variant GUCAGAGCUCAACACAGCGUGGCUCAGUGGCUGGUGCUAGACUACC [G2U A24U A25C U34G G35U G44A] has a self-cleavage of 0.02. For GUCAGAGCUCUACACAGCGUGGCAAAGUAGCUGUGGCGAGACUGCC [G2U A11U G29A U38G], the self-cleavage was 0.01. With GUCAGAGCUCUACACAUCGUGGCAACGUGGCUGUGUCGAGACUGCC [G2U A11U G17U A26C G36U U38G] the self-cleavage was 0.02. With GUCAGAGCUCAACCCAGCGUGGCAAAGUGGCAGUGGCUAGACUGCC [G2U A14C U32A] the self-cleavage was 0.01. GUCAGAGCUCAACACUGUGUGGCAAAGUGGGUGUGGCUAGACUGCC [G2U A16U C18U C31G] showed a self-cleavage of 0.01. GUCAGAGCUCAACACAGCGUGGCAGAGUGGAUGUGGCUAGACUGCC [G2U A25G C31A] showed a self-cleavage of 0.02. GUAAGAGUUCAACACAGCGUGGCAAAGUGGAUGUGGCUAGACUGCC [G2U C3A C8U C31A] gave a self-cleavage of 1.37. GUCAGAGCUCAACACAGCGUGGCGAAGUGGCUGUGGCUAGACUGCU [G2U A24G C46U] showed a self-cleavage of 0.07. For GUCAGAGCUCAACACAGCGUGGCACAAUGGCUGUGGCUAGACUGCC [G2U A25C G27A], the self-cleavage was 0.04. GUCAGAGCUCAACCCAGCGUGGCAAAUUGGCCGUGGCUAGACUACC [G2U A14C G27U U32C G44A] showed a self-cleavage of 0.01. For GUCAGAGCUCACCCCAGCGUGGCAAAGUGUCUGUGGCUAGACUGCC [G2U A12C A14C G30U], the self-cleavage was 0.02. GUCAGAGCUCAUCAGAGCGUGGCAAAGUGGCUGUGGCUAGACUGCC [G2U A12U C15G] gave a self-cleavage of 0.03. In the case of GUCAGAGCUCAACACCGCGUGGCAAAGUAGCUGUGGCUAGAUUGCC [G2U A16C G29A C42U], the self-cleavage is reported as 0.07. GUCAGAGCUCAACACAGCGUGGCUAAGUGGCUGUGGCUAAACUUCC [G2U A24U G40A G44U] showed a self-cleavage of 0.02. Work on GUCAGAGCUCAACACUGCGGGGCAAAGGGGCUGUGGCAAGACUGCC [G2U A16U U20G U28G U38A] yielded a self-cleavage of 0.01. Variant GUCAGAGCUCAACCCAGCGUGGCAAAGUGGCUGUGGCUUGACUGCC [G2U A14C A39U] has a self-cleavage of 0.03. For GUCAGAGCUCAACACAGCGUGGCGAAGUCGCUGUGGCUAGACUGCC [G2U A24G G29C], the self-cleavage was 0.03. Work on GUCAGAGCUCACAACAGCGUGGCAAAGUGGCUGUGGCUAGACUGCC [G2U A12C C13A] yielded a self-cleavage of 0. GUCAGAGCUCAACGCAGCAUGGCAAAGUCGCUGUGGCUAGACUGCC [G2U A14G G19A G29C] gave a self-cleavage of 0.32. GUAAGAGCUAAACACAGCGUGGCAAAGUGGCUGUGGCUAGACUGCC [G2U C3A C10A] showed a self-cleavage of 0.03. Work on GUCAGAGCUCAACACUGCUUGGCAAAGUGGCGGUGGCUAGACUGCC [G2U A16U G19U U32G] yielded a self-cleavage of 0.03. Work on GUCAGAGCUCAACACCGCGUAGCAAAGUCGCUGUGGAUAGACUGCC [G2U A16C G21A G29C C37A] yielded a self-cleavage of 0.03. In the case of GUCAGAGCUCUACACAGCGUGGUAAAGGGGCUGUGGUUAGACUGCC [G2U A11U C23U U28G C37U], the self-cleavage is reported as 0.01. GUCAGAGCUCAACGCAGCGUGGCAAAACUGCUGUGGCUAGACUGCC [G2U A14G G27A U28C G29U] showed a self-cleavage of 0.03. Variant GUCAGAGCUCAACUAAGCGUGGCAAAGUGGCUGUGGCUAGACUGCC [G2U A14U C15A] has a self-cleavage of 0.31. For GUCAGAGCUCAACACUGCGUGGCAAUGAGGCAGUGGCUAGACUCCC [G2U A16U A26U U28A U32A G44C], the self-cleavage was 0.07. Variant GUCAGAGCUCAACACAGCGUGGCCAAGUCGCGGUGGCUAGACUUCC [G2U A24C G29C U32G G44U] has a self-cleavage of 0.01. Variant GUCAGAGCUCAACGCAGCGUGGCAAAGUGGCUGUGGCUAGACAGCC [G2U A14G U43A] has a self-cleavage of 0.05. In the case of GUCAGAGCUCAACACAGCGUGGCAAGGUGGCUGUGGCUAGACUGCU [G2U A26G C46U], the self-cleavage is reported as 0.09. Work on GUCAGAGCUCAACACAGCGUGGCAAGGAGGCUAUGGCUAGACUGUC [G2U A26G U28A G33A C45U] yielded a self-cleavage of 0.1. GUCAGAGCUCAACUCAGCGUGGCAAAUUGGCUGUGGCUAAACUGCC [G2U A14U G27U G40A] gave a self-cleavage of 0.02. In the case of GUCAGAGCUCUACACAGCGUGGCGAAGUGGCUGUGGCUAGACUGCC [G2U A11U A24G], the self-cleavage is reported as 0.02.

From the RNAGym collection of RNA variant scans (doi:10.7554/elife.90254)
